Measured values from PubChem BioAssay AID504832 (National Center for Advancing Translational Sciences (NCATS), 2011).
Among all 310,000 compounds or so, about 18,000 (5.8%) were called active. Inconclusive results, whose numbers are uncertain, are shown with a selection of clear calls. Calls follow the shape of the dose curve; as a rule, active = well fitted inhibition curve with a large enough effect; inconclusive = small, poorly fitted or top-dose-only effect, or another doubt; inactive = no such curve, though single readings can be large or run the other way. Potencies of inconclusive entries are left out as doubtful fits.

Experiment: Primary qHTS for delayed death inhibitors of the malarial parasite plastid, 48 hour incubation
Settings: P. falciparum luciferase growth in erythrocytes; series mostly up to 28.7 µM
Procedure, shortened: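 Here the parasites carry a stable luciferase gene and grow inside erythrocytes in Albumax-based RPMI medium with compound for one erythrocytic cycle. Activity is scored as loss of luminescent signal.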
Potency is read from the fitted curve at half-maximal effect; tags tell the direction and shape of the fitted curve.

Structure (SMILES)	Potency
C/C(=N\Nc1cc(N2CCOCC2)ncn1)c1ccccc1	inactive
CN1C(=O)N(C)C2(c3ccccc3)Nn3c(s/c(=C/c4ccco4)c3=O)=NC12c1ccccc1 (stereo unspecified)	active: 11.7 µM
CCO[C@@H]1OC(C(N)=O)=C[C@H](C2CCCCC2)[C@H]1CCCO	inconclusive [inhibitor, partial curve, poor fit]
Cc1ccc(NC(=O)/C(=C\c2cccnc2)NC(=O)c2ccco2)cc1	inconclusive [inhibitor, single point]
CCOc1ccccc1C(=O)OCC(=O)Nc1nnc(-c2ccccc2)o1	inconclusive [inhibitor, single point]
O=C(Nc1ccc2c(c1)OCCO2)C(=S)NCc1ccccc1	inactive
CC(C)(C)c1ccc(OCCC(=O)Nc2cccc(S(=O)(=O)N3CCCCC3)c2)cc1	inconclusive [inhibitor, partial curve]
Cn1c(=O)cc(NCCc2ccccc2)[nH]c1=O	inactive
COCc1ccc(-c2c(-c3cc(OC)cc(OC)c3)oc(=O)c3cc(OC)c(OC)cc23)cc1	inconclusive [inhibitor, single point]
CCCCOCP(=O)(CCCC)COCCCC	inconclusive [inhibitor, single point]
O=C(Nc1cccc(C(F)(F)F)c1)C(Sc1ncnc2ccccc12)c1ccccc1 (stereo unspecified)	active: 7.38 µM
CCN1C(=O)[C@@H]2[C@@H](c3ccc(-c4ccc5c(c4)OCO5)c(OC)c3)N3CCCC[C@@]3(C(=O)OC)[C@@H]2C1=O	active: 4.65 µM
O=C(Nc1ccccc1Cl)C1(c2ccccc2)CC1(Cl)Cl (stereo unspecified)	inconclusive [inhibitor, partial curve, poor fit]
CCOC(=O)c1ccc(Nc2cc(C)nc(N3CCOCC3)n2)cc1	inconclusive [inhibitor, partial curve, poor fit]
CC(C)=NOCC(=O)Nn1c(COc2c(C)cccc2C)nc2ccccc2c1=O	inactive
C=CCn1c(C)cc(C(=O)COc2ccc(S(=O)(=O)N3CCCC3)cc2[N+](=O)[O-])c1C	inconclusive [inhibitor, single point]
COc1ccc(NC(=O)CSc2nnc3ccc(-c4ccncc4)nn23)cc1OC	inconclusive [inhibitor, full curve, poor fit]
NC(=O)c1ccsc1NC(=O)COC(=O)c1c(F)cccc1Cl	inactive
Cc1ccc(CSCC(=O)NCc2ccco2)cc1	inconclusive [inhibitor, single point]
CC(C)/C=C1\CC/C(=C\c2cccnc2)C1=O	inconclusive [inhibitor, single point]
COc1ccc(Cc2nc(C(=O)Nc3ccc(OC)cc3)cs2)cc1	inactive
CCc1nc(SCC(=O)N2CCCC2)c2ccccc2n1	inconclusive [inhibitor, full curve, poor fit]

Structure (SMILES)	Potency
Cc1ccc(/C=N/N2CCN(Cc3ccccc3)CC2)s1	inactive
COc1ccc2c(c1OC)C(=O)N1N=C(c3ccc(-c4ccccc4)cc3)CC21 (stereo unspecified)	inconclusive [inhibitor, partial curve, poor fit]
O=C(CC1SC(N2CCCC2)=NC1=O)Nc1ccc(C(=O)Nc2ccccc2)cc1 (stereo unspecified)	inconclusive [inhibitor, partial curve]
Cc1ccc2nc(SCC(=O)NCc3cccs3)[nH]c2c1	inactive
Cc1cc[n+](CC(=O)c2ccccc2)c2ccccc12	inconclusive [inhibitor, partial curve]
CCn1c(=NC(=O)CS(=O)(=O)c2ccc(C)cc2)sc2cccc(OC)c21	inconclusive [inhibitor, single point]
Cc1ccc(Nc2nc3c(c(=O)[nH]2)CCCC3)cc1	inconclusive [inhibitor, single point]
CCC(c1nnnn1CCc1ccccc1)N(Cc1ccco1)Cc1cc2cc(C)cc(C)c2[nH]c1=O (stereo unspecified)	active: 11.7 µM
COC(=O)c1sc(S(=O)(=O)Oc2ccccc2NC(C)=O)c(C(=O)OC)c1C	inconclusive [inhibitor, single point]
Cn1c(=O)c2sccc2n(Cc2ccccc2)c1=O	inactive
COc1ccc(CN2C=C3C(=O)C(C)(OC(=O)C4CCCC4)C(=O)C=C3C=C2c2ccsc2)cc1 (stereo unspecified)	inconclusive [inhibitor, single point]
Cc1[nH]c2ccc(F)cc2c1CCN(Cc1cccnc1)C(=S)Nc1ccccc1	inconclusive [inhibitor, single point]
CN1CCN(C2=C(NS(=O)(=O)c3cccs3)C(=O)c3ccccc3C2=O)CC1	inconclusive [inhibitor, partial curve]
CC(=O)c1ccc(OCc2cccc(C(F)(F)F)c2)cc1O	inactive
CCCCn1c(O)c(C(C)=NCCN2CCCCC2)c(=O)[nH]c1=O	inconclusive [inhibitor, single point]
COc1ccc(Br)cc1C(=O)Nc1ccc(C(=O)NCC(C)C)cc1	inconclusive [inhibitor, single point]
CCCN(CCC)C(=O)C[n+]1cccc(/C=N/O)c1	inconclusive [inhibitor, single point]
COCCn1nnnc1C(c1ccccc1)N1CCN(C(=O)c2ccco2)CC1 (stereo unspecified)	inactive
CC(=O)N1CCN(c2ccc(NC(=O)c3ccc([N+](=O)[O-])o3)cc2Cl)CC1	inconclusive [inhibitor, partial curve]
COc1ccccc1NC(=O)/C=C\C(=O)O	inactive
COc1cc(CNc2nc(C)c([N+](=O)[O-])c(C)c2C#N)cc(OC)c1	inconclusive [inhibitor, single point]
O=C(NCC1CCCO1)C(=O)N/N=C/c1cc(Cl)ccc1O (stereo unspecified)	inconclusive [inhibitor, single point]

Structure (SMILES)	Potency
O=C(NC1CCCC1)C(c1ccccc1F)N(C(=O)c1ccco1)C1CCCC1 (stereo unspecified)	inconclusive [inhibitor, partial curve, poor fit]
CCOC(=O)C(NCc1ccccc1OC)(NC(=O)c1ccccc1)C(F)(F)F (stereo unspecified)	inconclusive [inhibitor, partial curve, poor fit]
CC(C)Oc1ccc(C(=O)OCC(=O)NC2CCCCCC2)cc1	inconclusive [inhibitor, single point]
C/C(=N\Nc1nc2ccccc2s1)c1ccc(Br)s1	inconclusive [inhibitor, single point]
CN(C)c1ccc(P(=O)(OCc2ccccc2)C(O)c2ccc(Br)cc2)cc1 (stereo unspecified)	inconclusive [inhibitor, single point]
CN(C)CCCN(C(=O)c1ccco1)c1nc(-c2ccc(Cl)cc2)cs1	inactive
Cc1ccc(C)c(S(=O)(=O)Nc2ccc(C(=O)NCC(c3ccco3)N3CCCCC3)cc2)c1 (stereo unspecified)	inconclusive [inhibitor, partial curve]
O=C(CN1CCC(C(=O)c2cccc(F)c2)CC1)NCc1cccs1	inconclusive [inhibitor, partial curve]
N=C1SC(CC(=O)Nc2ccccc2[N+](=O)[O-])C(=O)N1c1ccccc1 (stereo unspecified)	inconclusive [inhibitor, single point]
CC1(C)SC(=S)N(Cc2ccc3c(c2)OCO3)C1N(O)C(=O)NC1CCCCC1 (stereo unspecified)	inconclusive [inhibitor, single point]
O=C(N/N=C/c1ccc(F)cc1)c1cccc(NC(=O)c2ccc(F)cc2)c1	inconclusive [inhibitor, partial curve, poor fit]
O=C(Cc1ccccc1)Nc1ccc2c(c1)C(=O)N(CC1CCCO1)C2=O (stereo unspecified)	inconclusive [inhibitor, partial curve, poor fit]
COc1cc(OC)c2c(-c3ccccc3)cc(=O)oc2c1C(CC(=O)N1CCOCC1)c1ccc2c(c1)OCO2 (stereo unspecified)	inconclusive [inhibitor, single point]
Cc1ccc(C(=O)NNC(=O)CSc2nnc(-c3ccncc3)n2-c2ccc(C)cc2)cc1	inconclusive [inhibitor, single point]
O=C(c1ccc([N+](=O)[O-])o1)N1CCc2ccccc2C1	inconclusive [inhibitor, single point]
COc1ccc(S(=O)(=O)Nc2ccccc2C(=O)NCc2cccnc2)cc1OC	inactive
Clc1cc2c(c(Cn3cnc4ccccc43)c1)OCOC2	inconclusive [inhibitor, single point]
CC/C(=N\NC(=O)c1ccccc1O)c1c(O)n(Cc2ccccc2)c(=O)[nH]c1=O	inconclusive [inhibitor, single point]
Cc1c(Cl)cccc1NC(=S)NC1CCN(Cc2ccccc2)CC1	inconclusive [inhibitor, single point]
Cc1cc(Cn2nc(C(=O)NCc3cccc(C(F)(F)F)c3)cc2-c2ccccc2)on1	inconclusive [inhibitor, single point]
CCOc1ccc(OCC(O)CNC2CCN(Cc3ccccc3)CC2)cc1 (stereo unspecified)	active: 2.62 µM
COc1ccccc1NC(=O)C1CCCN(c2ncnc3c2nc2n3CCCCC2)C1 (stereo unspecified)	inconclusive [inhibitor, full curve, poor fit]
